From article PMC6443190, “Regulation of anthocyanin accumulation via MYB75/HAT1/TPL-mediated transcriptional repression” (PLoS Genetics, 2019)
Results are given in words; binding and its absence hold for the method and conditions named. Tags and fused reporters may be left off the sequences shown.

What was measured:
Test in all cases: two-hybrid; directed assay; yeast AH109 with pairs of pGADT7 and pGBKT7 plasmids; growth on SD-Leu/-Trp/-Ade/-His
[1] = target: T1, MYB90 (yeast two-hybrid fusion) (Arabidopsis thaliana) (UniProt Q9ZTC3)
T1 sequence: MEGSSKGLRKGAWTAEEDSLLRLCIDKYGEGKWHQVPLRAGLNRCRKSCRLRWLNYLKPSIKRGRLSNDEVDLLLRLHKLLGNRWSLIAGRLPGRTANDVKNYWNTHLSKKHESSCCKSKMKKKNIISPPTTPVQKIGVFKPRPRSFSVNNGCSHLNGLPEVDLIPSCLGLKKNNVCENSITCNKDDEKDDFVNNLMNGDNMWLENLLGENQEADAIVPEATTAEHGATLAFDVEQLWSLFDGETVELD

[2] = target: T2, TPR1 (yeast two-hybrid fusion) (Arabidopsis thaliana) (UniProt Q0WV90)
T2 sequence: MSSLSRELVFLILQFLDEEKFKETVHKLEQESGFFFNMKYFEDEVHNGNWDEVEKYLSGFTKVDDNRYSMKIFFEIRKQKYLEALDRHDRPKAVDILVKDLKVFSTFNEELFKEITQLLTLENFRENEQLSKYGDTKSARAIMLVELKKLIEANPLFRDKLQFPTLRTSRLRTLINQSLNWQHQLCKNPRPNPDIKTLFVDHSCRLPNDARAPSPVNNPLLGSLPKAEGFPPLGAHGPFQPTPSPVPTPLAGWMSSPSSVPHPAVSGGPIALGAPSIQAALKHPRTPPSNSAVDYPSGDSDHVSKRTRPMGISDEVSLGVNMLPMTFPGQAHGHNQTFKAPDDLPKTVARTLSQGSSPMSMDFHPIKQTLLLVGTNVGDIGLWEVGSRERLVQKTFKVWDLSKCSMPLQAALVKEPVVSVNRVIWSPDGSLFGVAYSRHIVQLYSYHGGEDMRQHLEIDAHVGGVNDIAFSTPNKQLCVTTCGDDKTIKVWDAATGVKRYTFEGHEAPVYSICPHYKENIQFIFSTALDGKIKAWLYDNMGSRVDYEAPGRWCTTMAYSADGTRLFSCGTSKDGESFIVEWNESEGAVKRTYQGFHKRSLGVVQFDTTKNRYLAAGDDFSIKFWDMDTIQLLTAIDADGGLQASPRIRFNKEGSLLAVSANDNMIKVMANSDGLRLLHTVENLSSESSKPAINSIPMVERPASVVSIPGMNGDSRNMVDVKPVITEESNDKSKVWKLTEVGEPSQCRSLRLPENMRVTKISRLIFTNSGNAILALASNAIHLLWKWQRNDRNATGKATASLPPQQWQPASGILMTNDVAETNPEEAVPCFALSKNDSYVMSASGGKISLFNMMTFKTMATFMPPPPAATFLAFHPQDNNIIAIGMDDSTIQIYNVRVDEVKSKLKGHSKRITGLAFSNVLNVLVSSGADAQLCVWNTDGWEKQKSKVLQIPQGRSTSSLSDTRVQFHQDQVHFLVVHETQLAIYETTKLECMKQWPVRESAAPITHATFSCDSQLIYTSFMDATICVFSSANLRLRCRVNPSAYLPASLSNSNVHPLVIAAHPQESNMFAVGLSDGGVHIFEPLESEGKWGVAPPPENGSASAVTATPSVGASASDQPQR

[3] = target: T3, TPR2 (yeast two-hybrid fusion) (Arabidopsis thaliana) (UniProt Q9LRZ0)
T3 sequence: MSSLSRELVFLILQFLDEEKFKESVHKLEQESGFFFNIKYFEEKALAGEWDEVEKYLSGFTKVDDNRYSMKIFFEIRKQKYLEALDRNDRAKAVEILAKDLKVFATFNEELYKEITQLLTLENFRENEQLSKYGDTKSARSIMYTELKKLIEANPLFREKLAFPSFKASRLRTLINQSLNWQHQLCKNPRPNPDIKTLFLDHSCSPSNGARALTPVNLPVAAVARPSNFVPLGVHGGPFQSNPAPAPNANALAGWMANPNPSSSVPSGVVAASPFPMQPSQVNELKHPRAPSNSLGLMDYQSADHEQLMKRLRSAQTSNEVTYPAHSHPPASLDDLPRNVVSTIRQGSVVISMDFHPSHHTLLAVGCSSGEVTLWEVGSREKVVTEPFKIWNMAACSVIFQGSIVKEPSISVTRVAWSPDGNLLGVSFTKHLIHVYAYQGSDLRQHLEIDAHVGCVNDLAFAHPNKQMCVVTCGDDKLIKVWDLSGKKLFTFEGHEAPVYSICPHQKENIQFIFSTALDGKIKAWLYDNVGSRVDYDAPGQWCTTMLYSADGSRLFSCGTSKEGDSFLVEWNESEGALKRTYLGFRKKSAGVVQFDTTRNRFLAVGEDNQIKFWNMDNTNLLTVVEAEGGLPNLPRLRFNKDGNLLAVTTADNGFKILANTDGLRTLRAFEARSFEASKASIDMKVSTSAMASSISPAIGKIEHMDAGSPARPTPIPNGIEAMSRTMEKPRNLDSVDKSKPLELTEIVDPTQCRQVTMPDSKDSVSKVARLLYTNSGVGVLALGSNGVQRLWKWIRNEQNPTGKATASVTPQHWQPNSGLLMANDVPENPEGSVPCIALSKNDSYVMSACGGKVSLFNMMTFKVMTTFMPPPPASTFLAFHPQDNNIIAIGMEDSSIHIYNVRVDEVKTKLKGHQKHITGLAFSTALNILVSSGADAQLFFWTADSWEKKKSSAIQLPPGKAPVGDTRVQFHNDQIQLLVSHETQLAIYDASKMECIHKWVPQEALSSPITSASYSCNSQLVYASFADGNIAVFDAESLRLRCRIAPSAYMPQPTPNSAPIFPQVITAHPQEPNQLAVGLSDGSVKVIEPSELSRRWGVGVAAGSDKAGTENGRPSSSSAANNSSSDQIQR

Measured: binding

B1: HAT1 (pGADT7 fusion, yeast two-hybrid) (protein, UniProt P46600 1-282)
chain: MMMGKEDLGLSLSLGFAQNHPLQLNLKPTSSPMSNLQMFPWNQTLVSSSDQQKQQFLRKIDVNSLPTTVDLEEETGVSSPNSTISSTVSGKRRSTEREGTSGGGCGDDLDITLDRSSSRGTSDEEEDYGGETCRKKLRLSKDQSAVLEDTFKEHNTLNPKQKLALAKKLGLTARQVEVWFQNRRARTKLKQTEVDCEYLKRCVEKLTEENRRLEKEAAELRALKLSPRLYGQMSPPTTLLMCPSCERVAGPSSSNHNQRSVSLSPWLQMAHGSTFDVMRPRS
no binding: all assays above
